# Source: publication PMC4336329 (PLoS ONE, 2015)
# In all, about 310,000 compounds went through this assay and about 2,200 (0.71%) showed an effect of 50% or more. Effects have a minus sign here. This is one part of the list.
# Biological target: human ether-à-go-go-related gene (hERG) potassium channel (human, UniProt Q12809)
# Experiment: primary screen, population patch clamp on CHO cells stably expressing hERG
# human ether-à-go-go-related gene (hERG) potassium channel, sequence (Q12809 whole entry, looked up): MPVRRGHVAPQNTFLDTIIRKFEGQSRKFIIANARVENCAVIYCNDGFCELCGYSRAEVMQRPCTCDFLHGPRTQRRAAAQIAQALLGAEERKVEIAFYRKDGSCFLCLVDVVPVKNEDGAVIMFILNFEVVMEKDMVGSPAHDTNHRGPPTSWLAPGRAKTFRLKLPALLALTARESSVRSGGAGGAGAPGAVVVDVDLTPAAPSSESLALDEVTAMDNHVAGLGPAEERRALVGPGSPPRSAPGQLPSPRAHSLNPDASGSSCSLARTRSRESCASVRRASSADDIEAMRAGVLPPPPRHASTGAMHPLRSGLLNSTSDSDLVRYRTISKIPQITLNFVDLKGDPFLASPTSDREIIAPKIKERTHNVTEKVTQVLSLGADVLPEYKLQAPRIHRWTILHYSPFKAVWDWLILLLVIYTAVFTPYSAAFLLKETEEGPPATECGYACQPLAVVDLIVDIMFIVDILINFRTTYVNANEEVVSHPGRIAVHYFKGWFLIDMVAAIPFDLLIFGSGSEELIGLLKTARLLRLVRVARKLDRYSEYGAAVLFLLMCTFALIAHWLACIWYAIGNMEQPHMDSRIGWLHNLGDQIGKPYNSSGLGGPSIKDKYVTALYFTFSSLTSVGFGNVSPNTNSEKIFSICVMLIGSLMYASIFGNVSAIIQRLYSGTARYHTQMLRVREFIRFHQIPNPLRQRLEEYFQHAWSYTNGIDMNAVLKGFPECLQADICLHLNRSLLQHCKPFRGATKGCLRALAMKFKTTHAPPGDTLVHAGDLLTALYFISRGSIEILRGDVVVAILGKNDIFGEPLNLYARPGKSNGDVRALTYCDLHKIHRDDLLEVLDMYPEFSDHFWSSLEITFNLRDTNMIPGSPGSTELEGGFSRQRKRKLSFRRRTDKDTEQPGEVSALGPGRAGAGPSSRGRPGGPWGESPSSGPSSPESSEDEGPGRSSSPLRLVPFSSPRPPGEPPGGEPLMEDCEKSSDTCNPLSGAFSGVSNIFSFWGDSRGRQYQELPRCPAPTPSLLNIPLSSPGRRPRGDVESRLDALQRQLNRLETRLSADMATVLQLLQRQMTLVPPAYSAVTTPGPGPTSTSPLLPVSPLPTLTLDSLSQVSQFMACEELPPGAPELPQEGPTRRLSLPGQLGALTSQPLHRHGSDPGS
row,SMILES,"hERG current change (%, negative = inhibition) at 1uM"
1,CC(C)CC(=O)NC(=S)N1CCN(c2ccc([N+](=O)[O-])cc2Cl)CC1,4.87%
2,Cc1ccc(C)c(CSc2nc3[nH]ncc3c(=O)[nH]2)c1,4.6%
3,CCOc1cc(OCC)cc(C(=O)NCc2ccco2)c1,4.74%
4,O=C(CCC(=O)Nc1ccc(F)cc1)N/N=C/c1cc([N+](=O)[O-])ccc1O,12.7%
5,COc1cc(C(=O)NCC(=O)N2CCN(S(=O)(=O)c3ccccc3)CC2)cc(OC)c1OC,13.4%
6,O=C(O)c1ccc(N2C(=O)C3ON(c4ccccc4)C(c4ccccc4F)C3C2=O)cc1 (stereo not shown),2.3%
7,COC(=O)c1ccccc1NC(=O)c1cccc(COc2ccccc2Cl)c1,13.6%
8,Oc1c(Cl)cc(Cl)cc1Sc1cc(Cl)cc(Cl)c1O,14.9%
9,CCCCN(CCCC)CC(O)COc1ccccc1Br.Cl (stereo not shown),1.61%
10,C=C(C)CN(CC)c1nc(N)c(C#N)c(CC#N)c1C#N,-12.7%
11,COc1ccc(CNC(=O)[C@H](C)N2C(=O)N3CCc4c([nH]c5ccc(OC)cc45)[C@@]3(C)C2=O)cc1,12.6%
12,O=C(CSc1nc2ccsc2c(=O)n1CC1CCC(C(=O)O)CC1)NCCc1ccc(Cl)cc1 (stereo not shown),21.8%
13,NC(=O)CSc1nnc(-c2ccncc2)n1CCc1ccccc1,14.7%
14,O=C(Nc1ccc(Cl)cc1)C1CCCC1,10.9%
15,Cc1cccc(NC(=O)CCCN2C(=O)C3CC=CCC3C2=O)c1 (stereo not shown),14.3%
16,CC(=O)c1cc(-c2ccc(F)cc2)n(CCC(=O)Nc2cccnc2)c1C,15.5%
17,C=CCNCCOCCOc1ccc(C)cc1Br.O=C(O)C(=O)O,2.85%
18,Cc1cccc(N(CC(=O)Nc2ccc(-c3nc4ccc(C)cc4s3)cc2)S(C)(=O)=O)c1,19.5%
19,O=C(NCCc1ccccc1)c1cccnc1,12.6%
20,Cc1cc(-c2ccc(S(=O)(=O)N3CCN(c4cccc(C(F)(F)F)c4)CC3)s2)on1,5.92%
21,CCC(C)NC(=O)C1CCN(C(=O)COc2ccc3c4c(c(=O)oc3c2C)CCCC4)CC1 (stereo not shown),12.2%
22,COc1ccc2cc(CN(CCc3ccccc3)Cc3nnnn3CC3CCCO3)c(=O)[nH]c2c1 (stereo not shown),-1.92%
23,COC(=O)Nc1ccc(Cc2ccncc2)cc1,13.9%
24,O=C(COC(=O)c1ccc(Oc2ccccc2)cc1)Nc1nnc(-c2ccccc2)o1,11.6%
25,Cc1cc(C)cc(NC(=S)N(CCN(C)C)Cc2cccs2)c1,2.32%
26,CN(C)C=O.O=C(/C=C/c1cccc(F)c1)Nc1ccc(S(=O)(=O)Nc2ncccn2)cc1,6.26%
27,O=C(N1CCOCC1)C12CC3CC(C1)CC(c1ccccc1)(C3)C2,-2.54%
28,COc1ccc(CCNC(=O)C2CCN(C(=O)c3ccc(Cl)cc3)CC2)cc1,7.56%

row,SMILES,"hERG current change (%, negative = inhibition) at 1uM"
1,C/C(=N\NC(=O)c1csc(C)c1C)c1ccc(Cl)s1,5.25%
2,Cc1ccc(S(=O)(=O)NCC2CCC(C(=O)N3CCN(C)CC3)CC2)cc1 (stereo not shown),22.1%
3,Cc1c(NC(=O)CC(C)C)c(=O)n(-c2ccccc2)n1C,10.9%
4,Cc1ccc(S(=O)(=O)CCC(=O)Nc2ccccc2Br)cc1,17.8%
5,O=C(O)CSc1nnc(-c2cccc(S(=O)(=O)N3CCCCC3)c2)o1,17.7%
6,O=C(Cc1ccc(Cl)cc1)Nc1ccccc1C(=O)N1CCCC1,-3.6%
7,Cc1ccc(C)c(C(=O)OCC(=O)Nc2cccc(S(=O)(=O)NC3=NCCCCC3)c2)c1,8.75%
8,O=C(CSc1nnc(CNC(=O)c2ccccc2)o1)Nc1nccs1,16.2%
9,O=C(CCC(=O)NC12CC3CC(CC(C3)C1)C2)NC1CCCCC1,16.9%
10,CCC(C)NC(=O)CN(C)S(=O)(=O)c1ccc2c(c1)c(=O)n(C)c(=O)n2C (stereo not shown),0.896%
11,Cc1c(Cl)cccc1Nc1nc(N)nc(CN2CCCCCC2)n1,-38%
12,CCOCCCn1c(=N)c(S(=O)(=O)c2ccc(C)cc2)cc2c(=O)n3cc(C)ccc3nc21,16.1%
13,Cl.O=C1CSC(c2cccc([N+](=O)[O-])c2)N1CCN1CCCCC1 (stereo not shown),6.07%
14,CCOC(=O)Nc1nc(-c2ccccc2)c(C(=O)c2ccc(Cl)cc2)s1,7.82%
15,CC(NC(=O)Nc1ccc(Cl)cc1)C1CCCO1 (stereo not shown),1.28%
16,COc1ccc(S(=O)(=O)N2CCN(C3CCN(Cc4ccccc4)CC3)CC2)cc1,-15.6%
17,CCOC(=O)C(=CNc1ccccc1N1CCOCC1)C(=O)OCC,10.2%
18,Cc1ccc(S(=O)(=O)c2cc3c(=O)n4ccccc4nc3n(C3CCCC3)c2=N)cc1,3.8%
19,CCc1ccc(NC(=O)/C(C#N)=C/c2cc3ccc(C)cc3nc2N2CCOCC2)cc1,8.07%
20,CCn1c(CC(=O)Nc2ccccc2)nnc1SCC(=O)N1CCOCC1,13.6%
21,Cc1cc(C)c(C)c(S(=O)(=O)N(C)C2CCN(C)CC2)c1C.Cl,10.3%
22,CCN(CC)S(=O)(=O)c1ccc2oc(C(=O)NC3CCCc4ccccc43)c(C)c2c1 (stereo not shown),10.8%
23,CCOc1ccc(NC(=O)COc2coc(CN3CCc4ccccc4C3)cc2=O)cc1,12.3%
24,O=C(NCCSC1CCCCC1)c1ccccc1,5.1%
25,COc1ccc(C(=O)N2CCOC2CNC(=O)C(=O)NCc2ccc3c(c2)OCO3)cc1 (stereo not shown),4.09%
26,CCN(CC)S(=O)(=O)c1ccc2c(c1)nc(CCC(=O)OCC(=O)N1CCc3ccccc31)n2C,-5.56%
27,CCOC(=O)C(NC(=O)CC(C)C)(Nc1sc2c(c1C(N)=O)CCCC2)C(F)(F)F (stereo not shown),18.4%
